Results on 40 molecules are retold here after the antibiotic and cytotoxicity screens of Wong et al. (2023).

This is one part of the list.

The subject of the assay is S. aureus RN4220. In words: growth inhibition call (relative growth <= 0.2). To be noted: 50 µM.
For `COc1ccc(S(=O)(=O)N(C)C[C@@H]2Oc3ccc(NC(=O)Nc4c(C)noc4C)cc3CC(=O)N([C@H](C)CO)C[C@@H]2C)cc1`, the growth inhibition call is “inactive”.

For the molecule `C[C@H](CO)N1C[C@H](C)[C@@H](CN(C)Cc2ccc(Oc3ccccc3)cc2)Oc2ccc(NC(=O)Nc3ccc(F)cc3)cc2CC1=O`, the growth inhibition call is “inactive”.

With `Cc1ccc(S(=O)(=O)Nc2ccc3c(c2)C(=O)N([C@H](C)CO)C[C@@H](C)[C@@H](CN(C)Cc2ccc(Cl)c(Cl)c2)O3)cc1`, the growth inhibition call is “inactive”.

On to `COc1cccc(S(=O)(=O)N(C)C[C@@H]2Oc3ncc(C#Cc4cccc(F)c4)cc3C(=O)N([C@H](C)CO)C[C@@H]2C)c1`, for which the growth inhibition call is “inactive”.

On to `C[C@@H]1CN([C@H](C)CO)C(=O)c2cc(NS(=O)(=O)c3cccs3)ccc2O[C@@H](C)CCCCO[C@@H]1CN(C)Cc1ccc(C(=O)O)cc1`, for which the growth inhibition call was “inactive”.

In the case of `COc1ccc(C(=O)CO)cc1`, the growth inhibition call is “inactive”.

In the case of `Cc1ccccc1-c1ccc2c(c1)O[C@@H](CN(C)C(=O)Nc1ccc(C(F)(F)F)cc1)[C@H](C)CN([C@H](C)CO)S2(=O)=O`, the growth inhibition call is “inactive”.

Take `CN(C)CCCNC(=O)C[C@@H]1CC[C@@H]2[C@H](COc3ccc(NC(=O)c4cccc(F)c4)cc3C(=O)N2C)O1`: the growth inhibition call was “inactive”.

For `Cl.NC(=O)CCC(N)C(=O)O` (stereo not given), the growth inhibition call is “inactive”.

Turning to `C[C@H]1CN([C@@H](C)CO)C(=O)c2cccc(NS(=O)(=O)c3cccs3)c2O[C@@H]1CN(C)Cc1ccc(Oc2ccccc2)cc1`, the growth inhibition call is “inactive”.

Turning to `Nc1ncnc2nc(N3CCCCC3)[nH]c12`, the growth inhibition call is “inactive”.

Consider `CCOC(=O)CCC(=O)OC1C(OC2C(C)C(OC3CC(C)(OC)C(O)C(C)O3)C(C)C(=O)OC(CC)C(C)(O)C(O)C(C)C(=O)C(C)CC2(C)O)OC(C)CC1N(C)C` (stereo not given), for which the growth inhibition call was “active”.

With `C[C@@H]1CN([C@H](C)CO)C(=O)c2cc(C#CC(C)(C)O)cnc2O[C@H]1CN(C)C(=O)CN(C)C`, the growth inhibition call was “inactive”.

For `Cc1noc(C)c1S(=O)(=O)Nc1ccc2c(c1)C(=O)N([C@@H](C)CO)C[C@@H](C)[C@H](CN(C)C)OCCCC[C@H](C)O2`, the growth inhibition call is “inactive”.

Turning to `COc1ccc(S(=O)(=O)N2C[C@H](O)COC[C@@H]3O[C@H](CC(=O)N[C@@H]4CCN(Cc5ccccc5)C4)CC[C@H]32)cc1`, the growth inhibition call is “inactive”.

Turning to `CCOC(=O)CCCCCC(=O)Nc1ccc2c(c1)C(=O)N([C@@H](C)CO)C[C@H](C)[C@H](CN(C)C(=O)Nc1ccc(F)cc1)OCCCC[C@H](C)O2`, the growth inhibition call is “inactive”.

Turning to `COc1ccccc1C(=O)Nc1ccc2c(c1)C(=O)N(C)[C@@H]1CC[C@@H](CC(=O)NCc3ccc(Cl)c(Cl)c3)O[C@@H]1CO2`, the growth inhibition call is “inactive”.

Take `CN(C)C(=O)CN1CCC[C@]2(CCN(S(=O)(=O)c3cn(C)cn3)C2)C1`: the growth inhibition call is “inactive”.

Take `C[C@H](CO)N1C[C@H](C)[C@@H](CN(C)C(=O)Cc2ccncc2)Oc2ncc(C#Cc3ccccc3F)cc2C1=O`: the growth inhibition call is “inactive”.

Consider `COc1cccc(C(=O)Nc2ccc3c(c2)C(=O)N(C)[C@@H]2CC[C@H](CC(=O)NCC4CC4)O[C@@H]2CO3)c1`, for which the growth inhibition call is “inactive”.

With `COc1ccccc1S(=O)(=O)N[C@@H]1C=C[C@H](CC(=O)N2CCN(C)CC2)O[C@H]1CO`, the growth inhibition call was “inactive”.

As to `C[C@@H]1CCCCO[C@H](CN(C)S(C)(=O)=O)[C@@H](C)CN([C@H](C)CO)C(=O)c2cc(N(C)C)ccc2O1`, the growth inhibition call is “inactive”.

As for `C[C@H](CO)N1C[C@H](C)[C@@H](CN(C)CC2CCCCC2)Oc2c(NC(=O)c3cnccn3)cccc2C1=O`, the growth inhibition call is “inactive”.

With `COc1ccc(S(=O)(=O)Nc2ccc3c(c2)CC(=O)N([C@@H](C)CO)C[C@H](C)[C@@H](CN(C)S(=O)(=O)c2cccs2)O3)cc1`, the growth inhibition call is “inactive”.

With `COCCCNC(=O)[C@@]1(Sc2ccc(C)cc2)CC(=O)N(C2Cc3ccccc3C2)[C@@H]1c1ccc(CO)cc1I`, the growth inhibition call was “inactive”.

Take `COc1ccc([Si](C)(C)[C@H]2[C@H](CCO)O[C@@]3(C(=O)N(Cc4ccccc4)c4ccc(N5C(=O)c6ccccc6Oc6ccccc65)cc43)[C@@H]2C)cc1`: the growth inhibition call is “inactive”.

Turning to `C[C@H]1CN([C@@H](C)CO)C(=O)c2cc(NC(=O)C3CCCCC3)ccc2O[C@@H]1CN(C)Cc1ccc(C(F)(F)F)cc1`, the growth inhibition call is “inactive”.

For the molecule `NC(=S)Nc1ccncc1`, the growth inhibition call was “inactive”.

Regarding `CCS(=O)(=O)N1CC[C@]2(CC1)CN([C@@H](CO)c1c2c2ccc(cc2n1C)OC)C(=O)c1cccc(c1)F`, the growth inhibition call is “inactive”.

Regarding `C[C@H]1CN([C@@H](C)CO)S(=O)(=O)c2ccc(Br)cc2O[C@@H]1CN(C)C(=O)CCN1CCCCC1`, the growth inhibition call is “inactive”.

Consider `Cc1ccc(S(=O)(=O)N(C)C[C@@H]2Oc3c(NC(=O)c4ccncc4)cccc3C(=O)N([C@@H](C)CO)C[C@H]2C)cc1`, for which the growth inhibition call was “inactive”.

On to `C=CCOC(=O)C1=C[C@@H](c2cn(C(C)=O)c3ccccc23)C[C@@H](OCc2ccc(COC(=O)NCCCCCC(=O)NO)cc2)O1`, for which the growth inhibition call was “inactive”.

For the molecule `COc1ccc(NC(=O)Nc2ccc3c(c2)[C@H]2C[C@H](CC(=O)N4CCN(C)CC4)O[C@@H](CO)[C@H]2O3)cc1`, the growth inhibition call was “inactive”.

Consider `Cn1c(=O)c(F)c(Nc2ccc(I)cc2F)c2c(=O)n(C[C@@H](O)CO)cnc21`, for which the growth inhibition call was “inactive”.

Consider `C[C@H]1CN([C@@H](C)CO)C(=O)c2cc(NC(=O)Nc3cccc4ccccc34)ccc2O[C@@H]1CN(C)Cc1ccc2c(c1)OCO2`, for which the growth inhibition call is “inactive”.

`O=C(CN1CCOCC1)N[C@@H]1CC[C@H](CCNC(=O)C2CCCCC2)O[C@@H]1CO`: the growth inhibition call is “inactive”.

On to `COc1ccc(NC(=O)Nc2ccc3c(c2)C(=O)N([C@H](C)CO)C[C@H](C)[C@@H](CN(C)S(=O)(=O)c2ccc(Cl)cc2)OCCCC[C@@H](C)O3)cc1`, for which the growth inhibition call is “inactive”.

Turning to `CCNC(=O)C=Cc1cccc(Br)c1`, the growth inhibition call is “inactive”.

Take `C[C@@H]1CN([C@H](C)CO)C(=O)c2cc(NC(=O)Nc3ccc(C(F)(F)F)cc3)ccc2O[C@@H]1CN(C)Cc1ccncc1`: the growth inhibition call is “inactive”.

Consider `NC[C@@H]1CCCO1`, for which the growth inhibition call was “inactive”.
